Reference: article PMC4336329 (PLoS ONE, 2015)
About 14,000 (4.5%) of roughly 310,000 compounds showed an effect of 50% or more. Effects have a minus sign here. Some of the results follow.

These compounds were tested against human ether-à-go-go-related gene (hERG) potassium channel (human, UniProt Q12809) (assay: primary screen, population patch clamp on CHO cells stably expressing hERG).
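Note: peak tail current of the secondary pulse compared with the same well before compound.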

human ether-à-go-go-related gene (hERG) potassium channel, sequence (Q12809 whole entry, looked up): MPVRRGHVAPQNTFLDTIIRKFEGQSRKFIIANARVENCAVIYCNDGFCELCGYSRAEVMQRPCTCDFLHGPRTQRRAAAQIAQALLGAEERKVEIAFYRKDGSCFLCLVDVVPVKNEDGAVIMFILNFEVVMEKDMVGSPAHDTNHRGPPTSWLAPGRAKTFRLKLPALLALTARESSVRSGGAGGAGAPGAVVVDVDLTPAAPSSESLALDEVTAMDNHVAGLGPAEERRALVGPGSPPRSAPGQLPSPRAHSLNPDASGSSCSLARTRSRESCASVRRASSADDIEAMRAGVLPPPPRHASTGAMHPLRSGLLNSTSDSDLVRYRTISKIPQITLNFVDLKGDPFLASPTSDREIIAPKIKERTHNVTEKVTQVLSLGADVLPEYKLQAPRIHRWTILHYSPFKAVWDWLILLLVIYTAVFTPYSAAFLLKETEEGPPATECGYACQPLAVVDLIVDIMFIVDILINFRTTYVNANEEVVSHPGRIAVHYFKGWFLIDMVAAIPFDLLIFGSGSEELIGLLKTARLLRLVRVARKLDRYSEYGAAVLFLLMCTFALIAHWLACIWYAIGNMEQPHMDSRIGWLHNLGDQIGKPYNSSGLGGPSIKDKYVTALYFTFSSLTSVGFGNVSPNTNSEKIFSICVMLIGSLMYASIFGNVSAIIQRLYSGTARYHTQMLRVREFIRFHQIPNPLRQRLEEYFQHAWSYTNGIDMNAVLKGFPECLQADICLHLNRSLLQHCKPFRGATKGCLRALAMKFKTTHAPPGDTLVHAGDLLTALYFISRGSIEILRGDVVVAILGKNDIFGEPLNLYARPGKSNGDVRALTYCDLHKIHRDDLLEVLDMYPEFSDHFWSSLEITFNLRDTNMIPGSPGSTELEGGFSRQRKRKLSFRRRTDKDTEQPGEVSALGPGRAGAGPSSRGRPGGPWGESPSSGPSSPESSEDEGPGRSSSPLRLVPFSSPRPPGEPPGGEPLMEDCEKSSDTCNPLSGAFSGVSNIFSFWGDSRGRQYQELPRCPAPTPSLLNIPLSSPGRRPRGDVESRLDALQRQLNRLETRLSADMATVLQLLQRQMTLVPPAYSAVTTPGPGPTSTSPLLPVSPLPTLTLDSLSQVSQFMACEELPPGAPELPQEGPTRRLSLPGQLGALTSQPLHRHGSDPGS

Row | SMILES | hERG current change (%, negative = inhibition) at 10uM [%]
1 | CCn1cc2nc(SCC(=O)Nc3ccc(OC)cc3OC)n(Cc3ccc(OC)cc3)c(=O)c2n1 | 1.42
2 | Cc1ccc2[nH]c(=O)c(CN(Cc3nnnn3C3CCCC3)C3CCCCC3)cc2c1 | -8.29
3 | C=CCOc1c2ccc(C(=O)NCc3ccccc3OC)cc2nn1C | 5.24
4 | CCOc1ccc(NC(=O)CCCc2cc(-c3ccc(OCC)cc3)on2)cc1 | 7.77
5 | CC(=O)c1cccc(NC(=O)C(OC(=O)c2cccs2)c2ccccc2)c1 (centres unmarked) | -4.38
6 | CC1CCc2c(sc(NC(=O)c3ccc(Cn4cc([N+](=O)[O-])cn4)o3)c2C#N)C1 (centres unmarked) | 2.86
7 | COc1cccc(C2NC(=O)NC(C)=C2C(=O)OCCSC)c1OC (centres unmarked) | 11.5
8 | O=C(O)C(=O)O.O=S(=O)(c1ccccc1)N1CCN(CC2CC3C=CC2C3)CC1 (centres unmarked) | -7.54
9 | CCOC(=O)C1CCCN(Cc2c(F)cccc2Cl)C1 (centres unmarked) | -11
10 | CC(=O)NCCC(=O)Nc1cc(S(=O)(=O)N2CCOCC2)ccc1Oc1ccccc1 | -8.45
11 | CCN(CC(=O)Nc1ccccc1C(F)(F)F)C(=O)c1ccc(=O)n(Cc2ccccc2)n1 | -22
12 | O=C(NC(Cc1ccccc1)C(=O)N1CCN(S(=O)(=O)c2ccccc2F)CC1)c1ccccc1 (centres unmarked) | 12.8
13 | Cc1cc(C)nc(/N=c2/ssnc2Cl)c1 | -2.38
14 | CCOC(=O)c1ccc2nc(NC(=O)c3cccs3)sc2c1 | 8.13
15 | C=CCSc1nc2ccccc2n1C(=O)/C=C/c1cc(OC)c(OC)c(OC)c1 | 5.1
16 | O=C(c1ccc2c(c1)OCCO2)C1CCN(C(=O)c2ccc(F)c(F)c2)CC1 | -15.7
17 | CCOC(=O)[C@H]1[C@H]2COc3cc(OC)ccc3[C@@H]2N2C(=O)c3cc(F)c(F)cc3NC(=O)[C@@]12C | -6.33
18 | O=C(COc1ccccc1)N(Cc1ccco1)C1CCS(=O)(=O)C1 (centres unmarked) | -11.5
19 | CC(=O)N1CCN(S(=O)(=O)c2cccc(C(=O)Nc3nc4ccccc4[nH]3)c2)CC1 | 9.65
20 | O=CN1CCN(C2CC(=O)N(c3ccc4c(c3)OCO4)C2=O)CC1 (centres unmarked) | -4.9
21 | CCc1sc(NC(=O)CN2CCOCC2)nc1-c1ccccc1 | -12.1

Row | SMILES | hERG current change (%, negative = inhibition) at 10uM [%]
22 | COc1ccc(C#Cc2c(-c3ccc(OC)cc3)oc3ccc(-c4ccc(OC)cc4)cc23)cc1 | -10.9
23 | Cc1ccc(/C=N/NC(=O)c2c[nH]c3ccccc23)o1 | 8.53
24 | CCC(C(=O)Nc1ccc(S(=O)(=O)Nc2ncccn2)cc1)c1ccccc1 (centres unmarked) | 17.2
25 | CN(C)c1ccc(C(=O)Nc2nnc(C3=COCCO3)o2)cc1 | 11.3
26 | N#CCCN(Cc1ccccc1)S(=O)(=O)c1cccs1 | -16.5
27 | Cc1cc(=O)oc2c3c(cc(OCC(=O)NCc4ccccc4)c12)OC(C)(C)CC3 | -8.45
28 | Cl.c1ccc(C2CCC(N3CCNCC3)CC2)cc1 (centres unmarked) | -6.76
29 | O=C(Cc1ccc([N+](=O)[O-])cc1)Nc1ccc(Br)cn1 | -5.38
30 | Cc1sc(Cc2nc(O)cs2)nc1-c1ccccc1 | 26.6
31 | COC(=O)c1ccccc1NC(=O)N1CCc2ccc(NC(=O)c3ccccn3)cc2C1 | -16.4
32 | COc1ccc(CNCCc2ccc([N+](=O)[O-])cc2)c(OC)c1OC.O=C(O)C(=O)O | -68.9
33 | CC(=O)Nc1ccc(N/C=C/C(=O)c2ccc(C)o2)cc1 | -3.49
34 | CC(C)(C)c1ccc(NC(=O)c2cc[n+]([O-])cc2)cc1 | 11.6
35 | COc1ccccc1/C=N/NC(=O)CCn1cnc2ccccc21 | 2.84
36 | Cc1ccc(NC(=O)C(C)SCc2nc3sc4c(c3c(=O)[nH]2)CCCC4)nc1 (centres unmarked) | -25.3
37 | N#CCSc1nc2ccc(N3CCOCC3)cc2c(=O)n1CCc1ccccc1 | -5.02
38 | C=CCOc1ccc(/C(CC)=N/O)cc1OC | 16.9
39 | Cc1cccc(-n2c(SCC(=O)Nc3nnc(C)s3)nnc2-c2ccoc2C)c1 | -63.9
40 | O=C(NCc1ccco1)/C(=C\c1cccc([N+](=O)[O-])c1)NC(=O)c1ccco1 | -64.7
41 | COc1c(O)cc2c(c1O)[C@@H]1O[C@H](CO)[C@@H](O)[C@H](O)[C@H]1OC2=O | 19
42 | C=CCn1c(COc2ccc(Cl)cc2)nnc1SCC(=O)N1CC(=O)Nc2ccccc21 | -63.5

Row | SMILES | hERG current change (%, negative = inhibition) at 10uM [%]
43 | CC1CCC(N2CC(=O)N(Cc3ccc4c(c3)OCO4)C(c3ccc(F)cc3)C2=O)CC1 (centres unmarked) | -41.5
44 | COc1ccc(N2CC(C(=O)Nc3nnc(SCC(=O)NC(C)(C)C)s3)CC2=O)cc1 (centres unmarked) | 21.4
45 | COc1ccc(/C(N)=N/OC(=O)C2CCCCC2)cc1OC | 6.29
46 | COc1ccc(C2CCCN2C(=S)Nc2ccc(C)cc2C)cc1OC (centres unmarked) | -12.1
47 | N#CC1=C(SCC(N)=O)NC2=C(C(=O)c3ccccc32)C1c1ccc(Cl)cc1 (centres unmarked) | -1.6
48 | CCNS(=O)(=O)c1ccc(CCC(=O)N2CCN(C(=O)OCC)CC2)cc1 | 13.6
49 | Cc1c(CCC(=O)O)c(=O)oc2cc3occ(-c4ccc(Cl)cc4)c3cc12 | 21.7
50 | Cc1ccc2nc(-c3ccncc3)cc(C(=O)Nc3ccc(OC(F)F)cc3)c2c1 | -4.72
51 | Cc1cc(C(F)(F)F)n2nc(-c3cnn(C)c3C(F)(F)F)c(Br)c2n1 | 16.9
52 | O=C(NC1CCCCC1)C(c1cccs1)N(Cc1cccs1)C(=O)c1cccs1 (centres unmarked) | -12.2
53 | CC(=O)Nc1nc(-c2ccc(Br)s2)cs1 | 11.8
54 | O=C(c1ccc(Cl)cc1)c1c[nH]c(C(=O)NNc2cccc(Cl)n2)c1 | 17.3
55 | CCN(CC)S(=O)(=O)c1ccc(/C=C/C(=O)OCC(=O)Nc2ccc(S(N)(=O)=O)cc2)cc1 | -2.24
56 | Cn1cnnc1SCC(=O)c1cc2ccccc2oc1=O | 1.13
57 | Cc1c(Cl)cccc1NC(=O)COC(=O)C12CC3CC(CC(O)(C3)C1)C2 | 4.62
58 | CCOC(=O)Cc1cnc(NC(=O)NC(C(=O)OCC)(c2ccccc2)C(F)(F)F)s1 (centres unmarked) | -7.81
59 | CC(C)CCNC(=O)c1cn(C)c2ccc(S(=O)(=O)N3CCCC3)cc2c1=O | 7.94
60 | Fc1cccc(/C=N/Nc2cc(N3CCOCC3)ncn2)c1 | 14.2
61 | COc1ccccc1-c1cnn2c(N3CCOCC3)cc(C)nc12 | 23.9
62 | O=C(N/N=C/c1ccc(OCc2ccccc2)cc1)c1cccs1 | 28.5
63 | COc1ccc(Cn2nnnc2CN(CCCN2CCOCC2)Cc2cc3cc(OC)ccc3[nH]c2=O)cc1 | -42.7

Row | SMILES | hERG current change (%, negative = inhibition) at 10uM [%]
64 | CCN1C(=O)N[C@@H](c2cccc(C(F)(F)F)c2)C(C(C)=O)=C1C | -2.32
65 | COc1ccc(NC(=O)C2CCCN2S(=O)(=O)c2ccc3c(c2)CCC(=O)N3)cc1Cl (centres unmarked) | -27.8
66 | Cc1cc(C)cc(OCc2nnc(SCC(=O)N3CCCCC3)o2)c1 | -1.74
67 | O=C(C(=O)N1CCc2ccccc2C1)c1cn(CC(=O)N2CCOCC2)c2ccccc12 | -19.1
68 | COc1ccc(Cl)cc1C(=O)Nc1cccc2ncccc12 | -6.04
69 | O=C(O)CC1(O)C(=O)N(Cc2ccccc2)c2ccccc21 (centres unmarked) | 15
70 | Cc1occc1C(=O)NNC(=O)C1CCCC1 | -5.08
71 | C[C@H]1NC(=O)[C@@]2(C)[C@@H](c3ccccc3)[C@H]3COc4ccccc4[C@@H]3N2C1=O | -10.1
72 | Cc1cc(C)cc(OCC(=O)OCC(=O)N2CCc3ccccc32)c1 | 14.5
73 | Cc1cccc(-n2c(SCC(=O)c3c(N)n(C4CC4)c(=O)[nH]c3=O)nnc2N2CCOCC2)c1 | 0.839
74 | CCN(c1cccc(C)c1)S(=O)(=O)c1ccc(-c2coc(C)n2)cc1 | 4.01
75 | O=C(O)C(=O)O.c1ccc(Cn2c(SCCN3CCOCC3)nnc2-c2cccnc2)cc1 | -0.113
76 | O=C(OCC(=O)N1CCN(c2ccccc2)CC1)c1cnc(Cl)c(Cl)c1 | -38
77 | Cc1cc(=O)c(C(=O)O)cn1-c1ccc(C(C)C)cc1 | -20.4
78 | COc1ccc(S(=O)(=O)NC(Cc2ccccc2)C(=O)O)cc1 (centres unmarked) | 10.4
79 | O=C(N=c1ccn(-c2nc3ccccc3nc2NS(=O)(=O)c2ccc(Cl)cc2)cc1)c1ccccc1Cl | 0.052
80 | CC(OC(=O)CNS(=O)(=O)c1ccc2ccccc2c1)C(=O)N(C)c1ccccc1 (centres unmarked) | -15.6
81 | CCN(CC)CCn1c2ccccc2c2cnc(N=CN(C)C)c(C#N)c21 | -31.8
82 | COCCN1C(=O)N[C@@H](c2ccco2)C(C(=O)OC)=C1C | -8.51
83 | CCOC(=O)C(Cc1ccccc1)(NC(C)=O)C(=O)OCC | 7.61
